# Experimental data from the supplement of paper PMC7826260.
# The list shows a part of the results. One pool of 16,384 single-stranded DNAs met each Rep nickase domain in vitro (3 µM enzyme, 1 h, 37 °C); shown is the middle of each 90-letter strand. Uncut reads are compared with the no-enzyme pool on a log2 scale; more negative means more cut, near 0 not cut, and no call is made. Shares of all reads are compared, so uncut sequences can rise above 0 when many others are cut.
# System: T1, Rep nickase domain of Muscovy duck circovirus
# T1 sequence (residues 1-111, tag not shown): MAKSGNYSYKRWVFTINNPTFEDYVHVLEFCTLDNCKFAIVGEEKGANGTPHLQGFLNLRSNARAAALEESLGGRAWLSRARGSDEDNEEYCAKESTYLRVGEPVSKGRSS
# Experiment: uncleaved DNA left, log2 of reads against the no-enzyme library (log2 ratio); higher = less cleavage (more negative = more Rep cleavage of the k-mer); sequences stand for … in CTCGTCCG…ACCGGAGA
# Procedure: (§1)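 A pool of 90-nt single-stranded DNAs with seven random bases just before the constant AC of the nick site (name = the seven bases) was cut by 3 µM recombinant His6-SUMO-tagged Rep nickase domain (300 nM DNA, 50 mM HEPES pH 8.0, 50 mM NaCl, 1 mM MnCl2, 1 h, 37 °C, three replicates). Uncut DNA was amplified and sequenced.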
row,Sequence,uncleaved DNA left (log2)
1,AATCTGC,0.13
2,GTACGTT,-0.0992
3,GTCAAAG,0.0695
4,GAATTGA,0.0055
5,AGGTCCT,0.0478
6,CTGCTAG,0.0426
7,GAGAGGA,0.159
8,GGTTCTT,-0.361
9,GCTAGCG,0.112
10,TGACCAA,0.0357
11,GACAGTA,-0.000621
12,CTCAGTG,0.051
13,TCGCCCG,0.0671
14,GTACGCT,-0.0968
15,TATCCGT,0.0678
16,CCTCCTA,-0.0948
17,CACCGGC,-0.117
18,GAGCCCA,0.00888
19,TTTAGCA,-0.00553
20,CTGAACC,0.124

row,Sequence,uncleaved DNA left (log2)
1,TCTCACC,-0.184
2,GCACCTT,0.14
3,GTCACAC,0.0453
4,TTCACCA,0.0209
5,AGCTCCG,-0.116
6,AGCGTTC,-0.061
7,ACCAGTG,0.00887
8,TAAGGTC,-0.0132
9,TCCACTT,-0.1
10,ATCTGGT,-0.139
11,AACGAGA,0.00473
12,TGTGTGC,0.0501
13,CTTATAA,0.24
14,GGATGCC,-0.0536
15,AGGAAGA,0.0437
16,TGCATAT,-0.0466
17,CGCTTTA,-0.00496
18,CCTCAGA,-0.00641
19,CTACTGA,0.0858
20,CAGGATT,-0.143

# System: T2, Rep nickase domain of banana bunchy top virus
# T2 sequence (residues 1-94, tag not shown): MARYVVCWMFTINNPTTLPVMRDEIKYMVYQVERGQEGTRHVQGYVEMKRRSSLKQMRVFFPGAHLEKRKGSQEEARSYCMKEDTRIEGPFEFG
# Experiment: as above
# Procedure: as §1
row,Sequence,uncleaved DNA left (log2)
1,AATCTGC,0.0376
2,GTACGTT,-0.177
3,GTCAAAG,0.189
4,GAATTGA,-0.15
5,AGGTCCT,0.0223
6,CTGCTAG,0.19
7,GAGAGGA,0.0953
8,GGTTCTT,0.0451
9,GCTAGCG,0.0518
10,TGACCAA,0.046
11,GACAGTA,0.0402
12,CTCAGTG,0.0507
13,TCGCCCG,0.00105
14,GTACGCT,0.0508
15,TATCCGT,0.0871
16,CCTCCTA,-0.073
17,CACCGGC,-0.0842
18,GAGCCCA,0.0597
19,TTTAGCA,0.0149
20,CTGAACC,-0.0472

row,Sequence,uncleaved DNA left (log2)
1,TCTCACC,-0.152
2,GCACCTT,0.0691
3,GTCACAC,0.0268
4,TTCACCA,0.0409
5,AGCTCCG,-0.0747
6,AGCGTTC,0.0311
7,ACCAGTG,0.0549
8,TAAGGTC,-0.0168
9,TCCACTT,-0.132
10,ATCTGGT,-0.13
11,AACGAGA,0.0461
12,TGTGTGC,-0.0173
13,CTTATAA,0.259
14,GGATGCC,-0.129
15,AGGAAGA,0.137
16,TGCATAT,0.00742
17,CGCTTTA,-0.00636
18,CCTCAGA,0.0745
19,CTACTGA,-0.0438
20,CAGGATT,-0.12

# System: T3, Rep nickase domain of cabbage leaf curl virus
# T3 sequence (residues 1-116, tag not shown): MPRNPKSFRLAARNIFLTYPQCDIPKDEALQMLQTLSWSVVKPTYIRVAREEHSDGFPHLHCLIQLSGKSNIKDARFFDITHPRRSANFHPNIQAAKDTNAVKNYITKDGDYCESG
# Experiment: as above
# Procedure: as §1
row,Sequence,uncleaved DNA left (log2)
1,AATCTGC,-0.342
2,GTACGTT,0.0751
3,GTCAAAG,0.298
4,GAATTGA,-0.193
5,AGGTCCT,0.368
6,CTGCTAG,-0.562
7,GAGAGGA,0.462
8,GGTTCTT,0.469
9,GCTAGCG,-0.382
10,TGACCAA,0.241
11,GACAGTA,0.394
12,CTCAGTG,-0.674
13,TCGCCCG,-0.801
14,GTACGCT,0.132
15,TATCCGT,-0.185
16,CCTCCTA,-0.224
17,CACCGGC,0.0626
18,GAGCCCA,0.189
19,TTTAGCA,-0.16
20,CTGAACC,0.0946

row,Sequence,uncleaved DNA left (log2)
1,TCTCACC,-0.193
2,GCACCTT,0.00199
3,GTCACAC,0.324
4,TTCACCA,0.113
5,AGCTCCG,-0.549
6,AGCGTTC,-0.059
7,ACCAGTG,-0.688
8,TAAGGTC,0.0597
9,TCCACTT,-0.0805
10,ATCTGGT,-0.111
11,AACGAGA,0.68
12,TGTGTGC,-0.163
13,CTTATAA,0.0819
14,GGATGCC,0.24
15,AGGAAGA,0.298
16,TGCATAT,-0.093
17,CGCTTTA,-0.118
18,CCTCAGA,0.143
19,CTACTGA,-0.0415
20,CAGGATT,0.179

# System: T4, Rep nickase domain of chickpea chlorotic dwarf virus
# T4 sequence (residues 1-124, tag not shown): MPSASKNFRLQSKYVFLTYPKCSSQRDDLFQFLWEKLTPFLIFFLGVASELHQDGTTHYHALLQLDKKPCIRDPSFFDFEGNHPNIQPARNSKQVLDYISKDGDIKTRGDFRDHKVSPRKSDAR
# Experiment: as above
# Procedure: as §1
row,Sequence,uncleaved DNA left (log2)
1,AATCTGC,-0.351
2,GTACGTT,0.211
3,GTCAAAG,0.796
4,GAATTGA,-0.12
5,AGGTCCT,-0.0218
6,CTGCTAG,-0.349
7,GAGAGGA,0.756
8,GGTTCTT,0.901
9,GCTAGCG,0.932
10,TGACCAA,0.396
11,GACAGTA,0.476
12,CTCAGTG,-0.639
13,TCGCCCG,-0.647
14,GTACGCT,0.0517
15,TATCCGT,-1.16
16,CCTCCTA,-1.05
17,CACCGGC,-0.103
18,GAGCCCA,-0.226
19,TTTAGCA,-0.876
20,CTGAACC,0.456

row,Sequence,uncleaved DNA left (log2)
1,TCTCACC,-0.821
2,GCACCTT,-1.13
3,GTCACAC,0.954
4,TTCACCA,-1.18
5,AGCTCCG,-0.502
6,AGCGTTC,0.221
7,ACCAGTG,0.154
8,TAAGGTC,-0.191
9,TCCACTT,-2.15
10,ATCTGGT,0.155
11,AACGAGA,1.18
12,TGTGTGC,-0.311
13,CTTATAA,-0.0321
14,GGATGCC,0.83
15,AGGAAGA,0.613
16,TGCATAT,-0.461
17,CGCTTTA,-0.906
18,CCTCAGA,0.0653
19,CTACTGA,0.288
20,CAGGATT,1.25

# System: T5, Rep nickase domain of faba bean necrotic yellows virus
# T5 sequence (residues 1-98, tag not shown): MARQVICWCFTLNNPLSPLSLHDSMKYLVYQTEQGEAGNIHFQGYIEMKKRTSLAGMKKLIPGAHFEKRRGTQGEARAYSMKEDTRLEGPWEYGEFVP
# Experiment: as above
# Procedure: as §1
row,Sequence,uncleaved DNA left (log2)
1,AATCTGC,0.03
2,GTACGTT,-0.083
3,GTCAAAG,-0.0492
4,GAATTGA,-0.118
5,AGGTCCT,0.0447
6,CTGCTAG,0.14
7,GAGAGGA,0.012
8,GGTTCTT,0.108
9,GCTAGCG,0.0567
10,TGACCAA,-0.029
11,GACAGTA,-0.00384
12,CTCAGTG,0.0216
13,TCGCCCG,-0.0527
14,GTACGCT,-0.00206
15,TATCCGT,0.128
16,CCTCCTA,-0.0604
17,CACCGGC,-0.0992
18,GAGCCCA,-0.129
19,TTTAGCA,-0.00484
20,CTGAACC,0.0424

row,Sequence,uncleaved DNA left (log2)
1,TCTCACC,-0.144
2,GCACCTT,0.0416
3,GTCACAC,-0.0373
4,TTCACCA,-0.0194
5,AGCTCCG,-0.122
6,AGCGTTC,-0.0238
7,ACCAGTG,-0.0341
8,TAAGGTC,-0.0252
9,TCCACTT,-0.0667
10,ATCTGGT,-0.166
11,AACGAGA,0.101
12,TGTGTGC,-0.066
13,CTTATAA,0.237
14,GGATGCC,-0.0482
15,AGGAAGA,0.107
16,TGCATAT,-0.141
17,CGCTTTA,-0.0266
18,CCTCAGA,-0.0161
19,CTACTGA,-0.126
20,CAGGATT,-0.0279
